Assay results from the supplement of paper PMC11417369.
± gives the standard deviation of the averaged measurements. The list shows a part of the results.

The sequences below were run on PfAP2-I AP2 domain 3 (GST-tagged) (assay: gcPBM binding intensity (ln(normalized median fluorescence intensity)); higher = stronger DNA binding).
Procedure, shortened: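 Binding of GST-tagged P. falciparum DNA-binding domains, expressed in E. coli and used at about 25 μg on average, was carried out for 1 h in 1× PBS containing 1% milk, 0.2 mg/ml BSA, 0.5% salmon testes DNA and 0.03% Triton X-100. The target was an Agilent 4 × 180k array of primer-extended double-stranded 36-bp intergenic genomic probes plus negative controls, read with Alexa488 anti-GST antibody at 488 nm. Binding intensity is the highest Masliner-normalised natural-log median intensity across replicate spots of either probe orientation.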

| Sequence | gcPBM binding intensity (ln) |
| --- | --- |
| ATGATATATAGACACACACACATATTTATATACATT [CACACA_site6404] | 8.04 ± 0.45 |
| TATTTTTCCATATGCACACACACCGTATATATAATA [CACACA_site1127] | 9.43 ± 0.23 |
| ATAACAAAATAAAACACACACACAAATGTACATATA [CACACA_site2425] | 7.89 ± 0.47 |
| CATATACACCAACACACACACACACCCACAAAAAAA [CACACA_site496] | 8.29 ± 0.15 |
| AAATAAATAATTTAATGTACATATATAATATATATA [XGTACX_site1831] | 8.16 ± 0.49 |
| CTATTTATTATATATACATGCATATATATATTAATA [TGCATGCA_site527] | 8.16 ± 0.52 |
| TATTCTAATTTTTAAACACACAAATATAAATAAGTA [CACACA_site3149] | 7.67 ± 0.49 |
| TAAAAATGTGTATGTACACACTTTATTTTTAATACA [CACACA_site7235] | 7.8 ± 0.13 |
| TATTAAACGAAACACACACACACACCCATATATAAA [CACACA_site759] | 8 ± 0.18 |
| AAAAAGAATGTGAACACACACATTGAATCTAATTTA [CACACA_site6711] | 7.31 ± 0.55 |
| GATAATTATGGACACACACACACACCCACAACTAAA [CACACA_site8824] | 8.3 ± 0.38 |
| ACATATAATATATATATATATATATATATATATAAT [GTGCAC_negctrl_site648] | 8.16 ± 0.33 |
| TATATAAAAAATTCAATACACACCATATATAAATAT [CACACA_site3987] | 7.68 ± 0.4 |
| AGATGATATATTATATATCCTTTTAATAAATGTAAT [CACACA_negctrl_site730] | 7.4 ± 0.4 |
| TAATAGAATATGATGGTGCAGCAGTCTTATTTTTCA | 9.31 ± 0.13 |
| TTTCTTTCTTCACATATATATATATATATATTTATA [TGCATGCA_negctrl_site341] | 8.1 ± 0.69 |
| TACATATAATATATTGCACACGTCAGAATAATATAG [CACACA_site1744] | 10.1 ± 0.7 |
| CCCCCCCACGGACACACACACATACATACCACATAT [CACACA_site5303] | 10.2 ± 0.26 |
| TTTTATAATATTTAAAGTACATTCTAAAAATATAAT [XGTACX_site8033] | 7.49 ± 0.47 |
| TTAGCCATTAATTCTCTACACACCTTTATGTTATTT [CACACA_site9212] | 7.89 ± 0.76 |
| TATAATTATTTTTTTCTAAATATTATAAGGTATTCA [GTGCAC_negctrl_site205] | 7.18 ± 0.33 |
| ATTTTTTTTTTTTTTTTTTTTTTTTAGATTAAGAAA [CACACA_negctrl_site1272] | 7.58 ± 0.48 |

| Sequence | gcPBM binding intensity (ln) |
| --- | --- |
| AAATAAAATAAAATAAAATAAAATTCTTTGATACCT [TGCATGCA_negctrl_site604] | 7.3 ± 0.6 |
| AATTTTAAAAATATAACACACATATATAAAATATAT [CACACA_site3610] | 7.71 ± 0.29 |
| AATGAAGAAAAAAAAAGTACATTATTTTTAAAACTT [XGTACX_site563] | 7.78 ± 0.43 |
| TTTTAAATAAAATATTGTACATTAAAATTGTAATAT [XGTACX_site2128] | 7.46 ± 0.42 |
| ATTATAAATATGTATATACACACTTTTAATATTCAT [CACACA_site9367] | 7.91 ± 0.49 |
| AAGCAAACATATTAATGTACACACACCCACACACAA [XGTACX_site5806] | 7.99 ± 0.5 |
| TAAGATAAATGATAAAGTACTTTTTTTTTTTAAATA [XGTACX_site2326] | 7.36 ± 0.16 |
| ATTTATAAAATTAATAGTACATATATTTATATATAT [XGTACX_site4173] | 8.11 ± 0.38 |
| TATTGCACAAAATAATTTTATTATACTTTATGTTAG [TGCATGCA_negctrl_site574] | 8.21 ± 0.25 |
| CAAAAATAAACTATAGTACACACTTATTATTATGAA [CACACA_site2702] | 7.7 ± 0.36 |
| ATTTGGCATAGACACACACACACACGCACGCACATA [CACACA_site6424] | 8.62 ± 0.66 |
| TATGTTCATCATAGCACACATATATAAATTACAACA [CACACA_site3533] | 7.95 ± 0.48 |
| ATTGTAATCATATGAAGTACTAATATATATTTTAAT [XGTACX_site8350] | 7.68 ± 0.54 |
| TTTTTATGTAGAATTTTTTTATTTTTTCAAAATGGA [CACACA_negctrl_site166] | 7.33 ± 0.73 |
| TGTATTACGAAAAAATGTACAGAAAAAGAAACAAAA [XGTACX_site2777] | 8.24 ± 0.6 |
| TGGGATAGATCATTTACACACACAAAAAAAAAAAAA [CACACA_site2140] | 8 ± 0.58 |
| TTTGTCATAAGCAATGCATGTAAGTTTCTGACATTA [TGCATGCA_site1007] | 7.45 ± 0.55 |
| AACAACTATTAATTTACACACATGTATTTATTTTAC [CACACA_site5683] | 8.24 ± 0.57 |
| TCTTATATATTTATTTGTACATATATATATATATAT [XGTACX_site7214] | 9.11 ± 0.73 |
| ATAAAAAAATAAAACACACACATATATATTATATAT [CACACA_site2810] | 7.73 ± 0.44 |
| TAAATAAAAAAACACACACACATATATATATATATA [CACACA_site2269] | 9.62 ± 0.3 |
| AATGCATTGATTGCATTCAAAAAAAAAAAAAAAAAA [XGTACX_negctrl_site597] | 8.31 ± 0.57 |
